Values joined by “and” are separate entries in the source; they are usually repeats but may differ in a detail not shown here. Identical values can stand only once. Out of some 16,000 compounds screened, about 40 (0.2%) were called active. Not shown: some 1% with an inconclusive outcome. The call rests on the fitted dose curve; in most records, active means well fitted activation curve with a large enough effect; inconclusive means small, poorly fitted or top-dose-only effect, or another doubt; inactive means no such curve, though single readings can be large or run the other way. The list shows a part of the results.
Target: Rap guanine nucleotide exchange factor 4 (Homo sapiens) (UniProt Q8WZA2)
Assay: Validation qHTS for agonist of cAMP-regulated guanine nucleotide exchange factor 4 (EPAC2);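 further: exchange makes BODIPY-GDP fluorescence drop when released from Rap1B; series mostly up to about 150 µM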
Conditions: EPAC2 Rap1B BODIPY-GDP exchange, fluorescence; activation: hits give high values
Outline: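 Fluorescent exchange assay: 100 nM EPAC2 with 250 nM RAP1B-BODIPY-GDP and 50 uM GDP; compound added, 5 min at room temperature, then read (ex 480/em 540 nm) every 5 min for 30 min. Normalized to 6.5 mM cAMP agonist control.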
On the % scale 0 is the no-effect control and ±100 the full control effect.

Sequence of UniProt Q8WZA2 (Q8WZA2 whole entry, looked up): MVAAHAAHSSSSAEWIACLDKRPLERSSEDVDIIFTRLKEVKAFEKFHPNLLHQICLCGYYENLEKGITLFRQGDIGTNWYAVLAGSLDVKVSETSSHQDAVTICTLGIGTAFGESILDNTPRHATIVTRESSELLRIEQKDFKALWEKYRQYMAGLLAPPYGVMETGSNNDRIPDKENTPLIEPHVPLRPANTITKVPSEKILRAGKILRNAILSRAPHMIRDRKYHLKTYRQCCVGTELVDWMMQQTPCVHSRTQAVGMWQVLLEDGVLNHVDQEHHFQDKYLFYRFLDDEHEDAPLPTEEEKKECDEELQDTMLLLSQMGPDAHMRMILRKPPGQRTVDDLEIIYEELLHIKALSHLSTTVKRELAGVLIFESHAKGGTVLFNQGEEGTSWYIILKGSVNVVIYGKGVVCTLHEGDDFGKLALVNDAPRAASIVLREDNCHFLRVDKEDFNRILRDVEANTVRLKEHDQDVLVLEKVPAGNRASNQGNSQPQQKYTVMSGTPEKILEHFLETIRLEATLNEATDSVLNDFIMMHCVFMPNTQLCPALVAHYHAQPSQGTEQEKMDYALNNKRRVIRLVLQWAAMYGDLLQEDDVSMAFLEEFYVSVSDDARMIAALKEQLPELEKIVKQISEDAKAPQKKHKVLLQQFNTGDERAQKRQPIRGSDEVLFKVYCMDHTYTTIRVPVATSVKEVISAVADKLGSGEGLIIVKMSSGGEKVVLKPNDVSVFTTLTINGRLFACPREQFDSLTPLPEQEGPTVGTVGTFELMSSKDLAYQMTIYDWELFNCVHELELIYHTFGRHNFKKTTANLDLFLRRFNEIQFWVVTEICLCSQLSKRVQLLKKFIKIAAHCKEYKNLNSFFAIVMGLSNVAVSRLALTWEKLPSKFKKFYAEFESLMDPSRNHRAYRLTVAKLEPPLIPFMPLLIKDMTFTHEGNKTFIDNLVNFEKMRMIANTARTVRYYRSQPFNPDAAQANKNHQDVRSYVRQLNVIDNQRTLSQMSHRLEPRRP

activation, inactive:
CC(=O)c1ccc(C(=O)N2CCc3c(cnc(C)c3CNC(=O)c3ccc4c(c3)OCO4)C2)s1 3.79%
CC(CN(C)C)CN1c2ccccc2S(=O)(=O)c2ccccc21 (centres undefined) -6.28%
CC(C)CN1CCC(=O)N([C@H](COc2ccccc2)Cc2ccccc2)CC1 -31.4%
COc1ccccc1-c1nc(NCc2cnc(C)cn2)c2ccccc2n1 -13.1%
C=C[C@@H](C)N(Cc1ccc(OC)cc1)S(=O)(=O)N(Cc1ccccc1)[C@H](C=C)C(C)C -15.6%
CC1OC(OC2C(CO)OC(OC3C(CO)OC(O)C(O)C3O)C(O)C2O)C(O)C(O)C1NC1C=C(CO)C(O)C(O)C1O (centres undefined) -10.7%
COc1ccc2[nH]cc(CCNc3ncnc4ccc(-c5ccccc5OC)cc34)c2c1 4.26%
COc1cccc(-c2nc(NCCNC(C)=O)c3ccccc3n2)c1 6.43%
COc1ccccc1CNc1ncnc2ccc(-c3cccc(NS(C)(=O)=O)c3)cc12 1.44%
Oc1ccc(/C=C\c2cc(O)cc(O)c2)cc1 -10.8%
COc1cccc(Nc2ncc3nc(-c4cccs4)c(=O)n(Cc4cccs4)c3n2)c1 -35%
CCCCCCCCCCCCCCCC(=O)O[C@H](CC(=O)O)C[N+](C)(C)C -39.9%
CCCOC(C(=O)OC1CCN(C)CC1)(c1ccccc1)c1ccccc1 -35.6%
CC1(C)CC[C@]2(C(=O)O)CC[C@@]3(C)C(=CCC4[C@@]5(C)CCC(O)C(C)(C)C5CC[C@@]43C)C2C1 (some centres undefined) -12.2%
COc1cccc(Cn2c(=O)c(-c3ccc(Cl)cc3)nc3cnc(N4CCN(C)CC4)nc32)c1 -1.97%
CCCCCC1C(=O)CCC1CC(=O)OC (centres undefined) -15.5%
Cn1cccc1C(=O)N1CCC[C@@]2(CCN(C(=O)Nc3cccc(F)c3)C2)C1 -12.4%
N#Cc1ccc(CN2CC3(CCN(C(=O)c4ccco4)CC3)C2)cc1 -6.98%
C=C(CC)C(=O)c1ccc(OCC(=O)O)c(Cl)c1Cl 8.22% and -29.4%
Cc1cnc(SCC2CCCO2)nc1C1CCCN(Cc2cc3c(cc2Cl)OCO3)C1 (centres undefined) -5.62%
OCCCNCc1cc2cc3c(cc2nc1N1CCN(c2cccc(Cl)c2)CC1)OCO3 -2.89%
OC[C@H]1O[C@@H](O[C@@H]2[C@@H](CO)O[C@](O)(CO)[C@H]2O)[C@H](O)[C@@H](O)[C@H]1O -6.7% and -5.84%
CCCCCCOC(=O)C1(O)CC2OC1(C)n1c3ccccc3c3c4c(c5c6ccccc6n2c5c31)C(=O)NC4 (centres undefined) 6.87%
CCCC[C@@]1(C2CCCC2)Cc2cc(OCC(=O)O)c(Cl)c(Cl)c2C1=O -31.1%
Nc1ccc(S(=O)(=O)NC(=O)c2ccccc2)cc1 -1.75% and 6.35%
COc1cc2c(cc1OC)C1CC(=O)C(CC(C)C)CN1CC2 (centres undefined) -27.6%
O=C(c1cc(C(F)(F)F)cc(C(F)(F)F)c1)N1CCC2(CC1)CN(Cc1ccncc1)C2 -9.88%
C[N+](C)(C)CCOP(=O)(O)OP(=O)([O-])OC[C@H]1O[C@@H](n2ccc(N)nc2=O)[C@H](O)[C@@H]1O 2.13% and 2.57% and -8.29%
NNC(=O)CP(=O)(c1ccccc1)c1ccccc1 -12.9%
C[C@](N)(Cc1ccc(O)cc1)C(=O)O -6.36% and -2.47%
COc1cc2c(cc1OC)[C@@H]1CC(=O)[C@@H](CC(C)C)CN1CC2 -0.646%
Cc1ccccc1-c1cc(-n2ccnc2)ncn1 -6.44%
COc1ccc(NC(=O)N2CCC3(CC2)CCN(C(=O)c2csnn2)CC3)cc1 -10.4%
CS(=O)(=O)N1CCC2(CCCN(c3ncccn3)C2)CC1 -2.88%
Cc1cccc(C)c1NC(=O)c1ccccc1C(=O)O -34.8%
CCNC(=O)[C@H]1O[C@@H](n2cnc3c(N)nc(NCCc4ccc(CCC(=O)O)cc4)nc32)[C@H](O)[C@@H]1O 10.7%
c1ccc2c(Nc3ccncc3)nc(-c3ccoc3)nc2c1 -12.4%
CNCCNS(=O)(=O)c1cccc2cnccc12 -2.86% and -28.3%
O=C(O)Cn1c(C(=O)Nc2nc(-c3ccccc3Cl)cs2)cc2ccccc21 -30.8%
CC1CC[C@@]23CCC4(C)[C@@]5(C)CCC6C(C)(C)C(=O)CC[C@@]6(C)C5C=C[C@@]4(OC2=O)C3C1C (some centres undefined) -11.7%
COc1cc(-c2c(OC)cccc2OC)cc2c1OCCN(Cc1cn[nH]c1-c1ccc(Cl)cc1)C2 -5.17%
COc1c2c(cc3c1C(CC(=O)c1c(O)c(OC)c4occc4c1OC)[N+](C)(C)CC3)OCO2 (centres undefined) -28%
Cc1ccc2cc(CN(C(=O)c3ccc4c(c3)OCO4)C3CC3)c(N(C)C)nc2c1 0.168%
N#CC[C@H](Cc1ccccc1)N1CCN(CCc2ccccc2)CCC1=O -21.6%
O=C1CC(c2ccccc2)Oc2ccccc21 (centres undefined) -1.79%
C[C@@H]1NS(=O)(=O)[C@H]2C[C@@H]3C=C[C@]2(O3)[C@H]1OC(=O)Nc1ccc(C(F)(F)F)cc1[N+](=O)[O-] -15%
FCOC(C(F)(F)F)C(F)(F)F -0.579%
CS(=O)(=O)Nc1cccc(-c2nc(NCCN3CCOCC3)c3ccccc3n2)c1 -4.83%
CS(=O)(=O)c1ccc([C@@H](O)[C@@H](CF)NC(=O)C(Cl)Cl)cc1 -17.2%
CCN(CC)CCCC(C)Nc1ccnc2cc(Cl)ccc12 (centres undefined) -8.87% and 0.526% and -22.7%
CCCN1CCC(=O)N(CCN=[N+]=[N-])CC1 -6.79%
CCc1nc2cc(C(=O)N(C)C3CCOC3)cc(NC(=O)c3ccccc3OC)c2n1C (centres undefined) -5.16%
O=C(c1cc(C(F)(F)F)cc(C(F)(F)F)c1)N1CCC2(CCN(Cc3ccncc3)CC2)CC1 -16.4%
CCOC(=O)C(C#N)=C(c1ccccc1)c1ccccc1 6.2%
CS(=O)(=O)Nc1cc2occ(NC=O)c(=O)c2cc1Oc1ccccc1 -0.0333%
N[C@@H](CC(=O)O)C(=O)O -1.78% and 3.34% and -3.41%
O=C(O)c1cc(-c2ccc(-c3c(-c4ccc5c(c4)OCO5)noc3-c3ccsc3)cc2)nc2ccccc12 -10%
CNc1ncnc2c1ncn2[C@@H]1O[C@H](CO)[C@@H](O)[C@H]1O 8.03% and -19.1%
CC(C)OC(=O)C(C(=O)OC(C)C)=C1SC=CS1 -25.5%
CC(C)C[C@H](NC(=O)[C@@H](Cc1c[nH]c2ccccc12)NC(=O)[C@H](Cc1ccc(O)cc1)NC(=O)[C@H](CO)NC(=O)[C@H](Cc1c[nH]c2ccccc12)NC(=O)[C@H](Cc1cnc[nH]1)NC(=O)[C@@H]1CCC(=O)N1)C(=O)N[C@@H](CCCN=C(N)N)C(=O)N1CCC[C@@H]1C(=O)NCC(N)=O -38.6%
CSCC[C@@H](N)C(=O)O -1.69%
N#Cc1cccc(NC(=O)N2CC3(CCN(C(=O)c4cccc(F)c4)CC3)C2)c1 -11%
O=C(c1ccc(F)cc1)C1CCN(CCCCc2ccccc2)CC1 -5.1%
CC(NC(=O)c1ccco1)c1nnc2n1CCN(Cc1cccc(Cl)c1)CC2 (centres undefined) -9.35%
c1ccc2c(c1)CCCC2C1=NCCN1 (centres undefined) 14.5% and 22.8% and -6.65%
COc1cccc(CCc2ccccc2OCC(CN(C)C)OC(=O)CCC(=O)O)c1 (centres undefined) -17.7%
CCCCN1C[C@H](O)[C@@H](O)[C@H](O)[C@H]1CO -0.678%
CCn1c(-c2ccccc2F)nc2cc(C(=O)NCc3ccc(C)o3)cc(NC(C)=O)c21 1.44%
C[C@@H]1C(=O)O[C@H]2[C@@H](O)[C@@]34[C@H]5CC(C(C)(C)C)[C@]36[C@@H](OC(=O)[C@@H]6O)O[C@@]4(C(=O)O5)[C@@]12O (some centres undefined) -5.58%
O=C(c1ccc2[nH]ccc2c1)N1CCOc2ccc(CN3CCN(c4ccccn4)CC3)cc2C1 -16.3%
CN1CCN(c2ncc3nc(CCc4ccccc4)c(=O)n(Cc4cccs4)c3n2)CC1 14.9%
COc1ccc(Oc2ncc3nc(-c4cccc(C#N)c4)c(=O)n(CCC#N)c3n2)cc1 -20.5%
O=c1ccc2cc3ccoc3cc2o1 3.94%
COc1ccc(-c2nc3cnc(Oc4ccccc4)nc3n(CCC#N)c2=O)cc1 4.24%
CN(C)Cc1ccccc1-c1nc(N(C)C)c2ccccc2n1 -6.73%
CN=c1nc(-c2ccccc2)n(-c2ccccc2)s1 -20.2%
COc1ncc2nc(-c3ccc(Cl)cc3)c(=O)n(-c3ccccc3)c2n1 -15.3%
O=C(N[C@H]1CCC(=O)N([C@H](CSc2ccccc2)Cc2ccccc2)CC1)OCc1ccccc1 -6.72%
CC(=O)N1CCC[C@@]2(CCN(C(=O)Nc3ccccc3)C2)C1 -3.87%
